# Assay results reported in the supplement of paper PMC10441789.
# The list shows a part of the results. Antibody binding of pooled human sera (four to six donors per pool; dilution not stated) to peptides of the Trypanosoma cruzi antigen TSSA on microarrays. Quantile-normalised fluorescence in arbitrary units, mean of duplicate arrays; higher = more binding. No active / inactive call. The uninfected pools are read here as the healthy donors of the same country. The strongest signals lie near the top of the scale (about 60,000).
# Legend:
# Test in all cases: antibody binding signal (normalised fluorescence) (arbitrary fluorescence units); higher = stronger serum antibody binding to peptide
# [1] = system: pooled sera of chronic Chagas disease patients, Argentina
# Protocol: (§1)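 Microarray of overlapping 15-residue peptides of the four Trypanosoma cruzi TSSA reference variants and 8- to 13-residue peptides of TSSAII 24-62, probed with one serum pool per country.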
# [2] = system: pooled sera of chronic Chagas disease patients, Bolivia
# Protocol: as §1
# [3] = system: pooled sera of chronic Chagas disease patients, Brazil
# Protocol: as §1
# [4] = system: pooled sera of chronic Chagas disease patients, Colombia
# Protocol: as §1
# [5] = system: pooled sera of chronic Chagas disease patients, Mexico
# Protocol: as §1
# [6] = system: pooled sera of chronic Chagas disease patients, USA
# Protocol: as §1
# [7] = system: pooled sera of uninfected people, Argentina
# Protocol: as §1
# [8] = system: pooled sera of uninfected people, Bolivia
# Protocol: as §1
# [9] = system: pooled sera of uninfected people, Colombia
# Protocol: as §1
# [10] = system: pooled sera of uninfected people, Mexico
# Protocol: as §1
# [11] = system: pooled sera of uninfected people, USA
# Protocol: as §1
Sequence,antibody binding signal [1],antibody binding signal [2],antibody binding signal [3],antibody binding signal [4],antibody binding signal [5],antibody binding signal [6],antibody binding signal [7],antibody binding signal [8],antibody binding signal [9],antibody binding signal [10],antibody binding signal [11]
ANGGSTSSTPPS,1170,3220,1050,4350,1190,2600,271,490,147,431,342
NGGSTISTPPSGTDK,36800,26100,33000,443,52000,8740,676,221,219,266,160
ENKPATGEAPS,45500,47900,48100,299,324,42600,1010,852,142,200,159
PGASSGEAEAS,173,114,7920,112,159,95.8,206,131,84.1,83,177
STSSTPPSGTE,11400,759,9810,435,123,102,148,93.1,92.8,119,80.8
TISTPPSGTEKKAAA,38800,5330,34400,1030,18900,4240,3220,468,255,111,810
ANGGSTSSTPPGTDK,4320,2170,3060,5130,1770,9060,294,368,252,676,304
GEAPSQPGASSG,12500,39700,9920,112,107,1400,167,113,112,168,198
EAPSQPGASSGEA,7990,23000,8080,113,96.6,221,279,94.3,143,129,82.7
GGSTSSTPPGTDKKT,764,1600,8100,5410,1700,15100,140,119,185,1480,262
TENKPATG,45000,1350,1360,167,981,506,532,1540,191,259,223
PGASSGEA,647,157,7590,150,113,103,135,134,106,88.9,98.2
NGGSTSST,238,199,272,156,182,152,85.1,167,104,110,94.5
STPPSGTEN,41300,37100,28100,108,182,238,327,162,103,97.1,162
ISTPPSGTEKKAAAG,39700,3420,32400,873,11800,6910,1090,308,121,111,203
ASSGEAEASSNKNDG,215,1690,3760,705,1380,1070,207,448,154,2480,564
GGSTISTPPSGTDKK,29600,3490,34100,2130,42200,6430,414,107,152,617,172
KKAAAGEAPSPSGAS,199,202,665,166,192,8030,256,225,97.9,70,187
TGEAPSQP,11700,24700,19200,87.5,78.9,4170,136,75.1,73.7,74.6,54.4
NGGSTSSTPPSGT,274,211,615,391,203,126,329,193,123,163,90.4
PSGTDKKTAAGEAPS,4570,1290,6700,4120,1500,6760,593,666,2040,323,286
STPPSGTENKPATGE,46600,48300,50100,783,3420,44600,9300,1260,424,533,569
NGGSTSSTPPGTDKK,5350,539,2780,12600,2710,15500,290,153,267,1690,270
TDKKTAAGGTPSPSG,1540,256,183,10600,443,1610,112,113,251,233,189
PPSGTENKP,49800,46400,48600,312,8040,24600,4850,1020,727,395,892

Sequence,antibody binding signal [1],antibody binding signal [2],antibody binding signal [3],antibody binding signal [4],antibody binding signal [5],antibody binding signal [6],antibody binding signal [7],antibody binding signal [8],antibody binding signal [9],antibody binding signal [10],antibody binding signal [11]
STPPSGTEKKAAAGE,36000,33600,32000,375,13800,5410,1160,336,181,138,132
PPGTDKKTAAGGTPS,11200,735,1530,30100,25600,11900,246,159,361,939,418
GTENKPATGEA,37900,30200,34800,1030,1950,21700,539,1350,132,430,367
PSQPGASSGEAE,326,166,9050,126,139,143,225,110,209,164,99
PPSGTDKKTAAGEAP,8930,9770,20000,2530,31200,4460,355,356,797,896,212
PSQPGASSGEA,346,221,8170,92.6,194,98.5,121,111,95.5,300,87.6
CTTANGGSTISTPPS,524,673,975,125,198,221,575,225,1950,150,140
TGEAPSQPGASS,10800,38800,20100,86.5,111,2700,216,117,117,160,114
PGASSGEAEASSNKN,277,2420,7400,352,1040,1150,194,661,153,1260,796
SGTENKPA,52100,32500,42500,323,1050,9270,2090,1720,196,639,688
GEAPSQPGASSGEAE,7950,19200,10000,151,84.8,444,298,98.1,139,93,76.9
KPATGEAPS,46900,32100,46400,217,207,41300,875,916,143,189,147
STPPSGTENK,54100,46800,52300,322,8050,40100,3400,482,725,346,443
APSPSGASSGEAEAS,173,230,5050,157,463,221,303,158,139,105,311
STPPSGTDKKTAAGE,29900,30600,31800,4470,25400,5890,633,160,218,1350,132
EAPSQPGASSGEAEA,4470,9330,7660,103,99.6,121,197,97,97.1,84.5,70.8
QPGASSGEAEAS,227,112,8270,90.5,137,136,213,126,94.6,82.3,188
TAAGGTPSPSGASSG,4320,183,319,269,1030,170,125,219,581,261,637
PGASSGEAEASS,157,113,6230,179,160,87.9,130,105,71.5,90.5,69.1
ISTPPSGTDKKTAAG,20600,5500,32900,4180,22000,3940,455,121,125,599,211
STPPSGTE,9970,770,9220,99.8,130,74,72.6,157,69.9,87.9,55.8
STPPSGTENKPA,53200,49500,50300,368,11400,46200,8250,1450,909,575,984
EAPSQPGASSGE,8410,34800,8180,95.5,111,240,269,104,139,137,81.5
GGSTSSTPPS,329,292,369,230,245,224,233,214,106,151,80.9
GTENKPATGEAP,46400,40900,44000,1740,4170,33900,1570,1510,183,264,218
